Hit rate of the full screen: of about 310,000 compounds, about 14,000 (4.5%) showed an effect of 50% or more. Effects have a minus sign here. Some of the results follow.
target: human ether-à-go-go-related gene (hERG) potassium channel (human, UniProt Q12809); experiment: primary screen, population patch clamp on CHO cells stably expressing hERG
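Also: peak tail current of the secondary pulse compared with the same well before compound.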

human ether-à-go-go-related gene (hERG) potassium channel, sequence (Q12809 whole entry, looked up): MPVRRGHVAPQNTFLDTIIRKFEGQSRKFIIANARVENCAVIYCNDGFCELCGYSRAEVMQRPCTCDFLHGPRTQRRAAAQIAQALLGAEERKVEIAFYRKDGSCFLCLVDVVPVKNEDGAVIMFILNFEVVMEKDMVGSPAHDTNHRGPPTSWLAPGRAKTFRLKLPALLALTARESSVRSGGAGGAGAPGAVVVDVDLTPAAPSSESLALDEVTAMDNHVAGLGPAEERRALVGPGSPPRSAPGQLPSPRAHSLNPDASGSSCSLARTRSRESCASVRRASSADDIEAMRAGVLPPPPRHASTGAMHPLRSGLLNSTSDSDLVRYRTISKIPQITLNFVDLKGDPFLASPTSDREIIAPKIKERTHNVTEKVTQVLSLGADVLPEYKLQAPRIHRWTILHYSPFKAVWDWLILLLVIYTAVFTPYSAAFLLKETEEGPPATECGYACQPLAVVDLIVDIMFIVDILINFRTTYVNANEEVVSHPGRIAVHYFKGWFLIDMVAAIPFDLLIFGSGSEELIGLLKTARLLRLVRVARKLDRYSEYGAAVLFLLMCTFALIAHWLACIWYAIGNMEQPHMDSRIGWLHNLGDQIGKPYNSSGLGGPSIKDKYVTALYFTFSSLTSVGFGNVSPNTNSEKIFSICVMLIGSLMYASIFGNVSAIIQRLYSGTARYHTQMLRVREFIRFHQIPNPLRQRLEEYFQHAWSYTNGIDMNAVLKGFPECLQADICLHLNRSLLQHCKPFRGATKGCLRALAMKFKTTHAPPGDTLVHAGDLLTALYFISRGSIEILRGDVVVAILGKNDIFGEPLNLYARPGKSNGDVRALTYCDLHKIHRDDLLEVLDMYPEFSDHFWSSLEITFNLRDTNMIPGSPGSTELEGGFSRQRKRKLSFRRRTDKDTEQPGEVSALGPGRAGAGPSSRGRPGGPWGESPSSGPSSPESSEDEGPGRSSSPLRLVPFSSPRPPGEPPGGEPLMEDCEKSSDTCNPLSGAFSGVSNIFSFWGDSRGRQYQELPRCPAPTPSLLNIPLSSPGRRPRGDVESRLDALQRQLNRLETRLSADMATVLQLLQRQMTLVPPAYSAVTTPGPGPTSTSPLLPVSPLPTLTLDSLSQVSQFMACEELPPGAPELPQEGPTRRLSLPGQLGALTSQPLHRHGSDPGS

Compound	hERG current change (%, negative = inhibition) at 10uM [%]
COC(=O)[C@H]1[C@H]2C[C@H]3c4[nH]c5ccccc5c4CCN3C[C@H]2CC[C@@H]1O.Cl	0.968
CC(=O)Nc1cc(C)nn1-c1nc2ccccc2s1	15.6
CC(=O)c1c(O)cc(C)n(Nc2nc(C)cc(C)n2)c1=O	1.83
CC(C)(C)C(=O)N1CCN(S(=O)(=O)c2ccc3c(c2)OCCCO3)CC1	-8.72
COC(=O)c1ccc(NC(=O)C(C)N2C(=O)c3ccccc3C2=O)cc1 (centres unmarked)	6.09
CCn1c(=O)n(CC)c2cc(N3CCCC3)c(NC(=O)c3cccc(C)c3)cc21	-5.12
Cc1nc(=O)c(-c2ccccc2)c(C)n1-c1ccc(Br)cc1	-0.653
Cc1cc(C)cc(NS(=O)(=O)c2ccc(NC(=O)c3ccccc3C(=O)O)cc2)c1	9.88
CN(CC(=O)Nc1ccc(Cl)c(Cl)c1)CC(=O)Nc1ccc2c(c1)OCO2	-3.52
N#Cc1c(-c2ccco2)nc(SCC(=O)Nc2ccc(S(N)(=O)=O)cc2)[nH]c1=O	-2.56
CC(=O)Nc1ccc(N2C(=O)c3ccc(C(=O)Nc4nnc(SCc5ccc(F)cc5)s4)cc3C2=O)cc1	13.4
Cc1ccc(/C=C2/C(=O)NC(=O)N(CCc3ccc(F)cc3)C2=O)o1	5.03
O=C(CNS(=O)(=O)c1cccc(F)c1)OCC(=O)N1CCCC1=O	0.385
COc1ccc2c(c1)-c1nc(NC(=O)c3cccs3)sc1CC2	-5.23
O=C1C=C(c2ccccc2)CC(c2cccs2)C1n1cnc([N+](=O)[O-])c1 (centres unmarked)	-21.9
CCOc1ccc(N2C(=O)CC(NCCc3ccncc3)C2=O)cc1 (centres unmarked)	-5.67
Cc1c(Br)c([N+](=O)[O-])nn1C(C)C(=O)N1CCc2ccccc2C1 (centres unmarked)	-13.4
CCCOc1ccc(OCCOCCN2CCc3ccccc3C2)cc1	-64.7
COc1ccc(S(=O)(=O)N2CCOCC2)cc1NC(=O)Cn1nnc2ccccc2c1=O	-35.7
CS(=O)(=O)N1CCN(c2ccccc2NC(=O)c2ccco2)CC1	-38.9
CCO[C@@H]1OC(C(=O)N2CCN(Cc3ccc4c(c3)OCO4)CC2)=C[C@H](C)[C@H]1CCCO	-9.45
CC(=O)Nc1cccc(/C(C)=N\NC(=O)c2ccc(Cn3nc([N+](=O)[O-])c(Cl)c3C)o2)c1	-9.44

Compound	hERG current change (%, negative = inhibition) at 10uM [%]
COc1ccc(N=C2SC(C(=O)Nc3ccc4c(c3)OCO4)CC(=O)N2C)cc1 (centres unmarked)	6.04
Cc1ccc(NC(=O)CSc2cn[nH]n2)cc1	20.6
Cc1ccccc1OCCCC(=O)Nc1ccc2c(c1)OCO2	5.46
CN(Cc1ccccc1)C(=O)COC(=O)c1cc([N+](=O)[O-])ccc1N1CCOCC1	-56.7
Fc1ccc(-c2n[nH]c(=S)c3ccccc23)cc1	-2.8
CCN(CC(=O)Nc1ccc2c(c1)OCCO2)C(=O)c1cccc(OCC(C)C)c1	-15.7
Cc1ccc(NC(=O)Nc2cnccn2)cc1	5.11
CCc1ccc(NC(=O)CSc2ccc(-c3ccccn3)nn2)cc1	2.69
CCCOc1ccccc1C1CC(=O)Nc2cc3c(cc21)OCO3 (centres unmarked)	-3.8
O=C(Nc1ccc(NC(=O)c2cccs2)cc1)c1ccccc1	16.8
O=C(C1CCCCN1S(=O)(=O)c1ccccc1[N+](=O)[O-])N1CCOCC1 (centres unmarked)	7.87
Cc1[nH]c(C)c(S(=O)(=O)NCCc2ccccc2)c1C(=O)N1CCCC1	15.5
COc1ccc(C)cc1NC(=O)CN1CCN(c2ccccn2)CC1	-11.7
CCN1CCN(C(=O)Cc2ccccc2OC)CC1	13.3
CCOC(=O)/C(C#N)=C1/C=CN(c2ccc(C)cc2)C=N1	-1.21
COc1ccccc1N(CC(=O)NCC1CCCO1)C(=O)Cn1nnc(-c2cccs2)n1 (centres unmarked)	7.42
Cc1cccc(NC(=O)CNC(=O)Cc2ccc3c(c2)OCCO3)c1C	24.2
O=C(CCN=C1NS(=O)(=O)c2ccccc21)OCc1cccc(Cl)c1	-10.5
CCc1cc2c(=O)c(Oc3ccccc3)c(C)oc2cc1O	-22
COc1cc(OC)cc(C(=O)Nc2cccc3cccnc23)c1	28.6
Cc1ccc(N(Cc2ccc(C(=O)Nc3c(C)n(C)n(-c4ccccc4)c3=O)cc2)S(C)(=O)=O)cc1C	13.8
COC(=O)c1cn(CCOc2ccccc2OC)c2ccccc12	0.372

Compound	hERG current change (%, negative = inhibition) at 10uM [%]
CCc1ccc(C2CC(c3cccc(OC)c3)n3nc(N)nc3N2)cc1 (centres unmarked)	-2.68
COc1ccc(C(=O)Nc2ccc(Oc3ncnc4sc(-c5ccccc5)cc34)cc2)cc1OC	28
O=C1CC(=O)N(c2ccc(Cl)cc2Cl)C(=O)N1	3.87
COc1cccc(N(C(=O)Cn2nnc(-c3ccc(C)o3)n2)C(C(=O)NC2CCCC2)c2ccncc2)c1 (centres unmarked)	17.2
CN(C)/C=C(\C=N\OCc1ccc(Cl)cc1Cl)C(=O)Nc1ccc(Cl)c(Cl)c1	12.4
COc1ccc(-c2cc(C(=O)NCC3CCCO3)on2)cc1OC (centres unmarked)	0.789
COc1ccc(Nc2nnc(SC(C(=O)Nc3cc(C)ccc3C)c3ccccc3)s2)cc1 (centres unmarked)	0.191
CC(=O)Nc1ccc(-c2csc(NC(=O)Cc3ccccc3F)n2)cc1	10.1
NS(=O)(=O)c1cccc(NC(=O)CCCC2CCCCC2)c1	-45.3
COc1cccc(NC(=O)C2C3C=CC4(O3)C2C(=O)N(CCN2CCCCC2)C4C(=O)NC2CCCCC2C)c1 (centres unmarked)	18.6
COc1cc2nc(N(CCCN(C)C)C(=O)c3ccc(C(=O)c4ccccc4)cc3)sc2cc1OC.Cl	-70.4
Cc1sc2nc(COC(=O)c3c(F)cccc3F)[nH]c(=O)c2c1C	2.34
COc1ccc(CN2CCC(n3nccc3NC(=O)c3cccc(F)c3)CC2)cc1O	-80.4
CC(C)CNc1cc(N2CCCC2)ccc1[N+](=O)[O-]	0.4
COc1ccc(Cl)cc1NC(=O)CN1CCC(NC(=O)C2CC2)CC1	-52
CC(=O)c1ccc(S(=O)(=O)Nc2ccc(-n3c(C)nc4ccccc4c3=O)cc2)cc1	-43.2
O=C(N/N=C/c1ccccc1)c1sccc1OCc1ccc(F)cc1	5.25
COC(=O)c1sc(N2C(=O)C(O)=C(C(=O)c3ccc(C)o3)C2c2cccs2)nc1C (centres unmarked)	10
CCOc1ccc(S(=O)(=O)NC2CCCCCC2)cc1	24.9
CCC/C(O)=C1\C(=O)CC(c2ccccc2)CC1=NC(C)C(=O)O (centres unmarked)	2.38
COc1cc2ccccc2cc1C(=O)OCC(=O)N(CC(C)C)c1c(N)n(Cc2ccccc2)c(=O)[nH]c1=O	-9.13
CSC1=N/C(=C\c2ccc3c(c2)OCO3)C(=O)S1	12.3

Compound	hERG current change (%, negative = inhibition) at 10uM [%]
CC1CN(S(=O)(=O)c2ccc(C(=O)Nc3nc(-c4cc5ccccc5o4)cs3)cc2)CC(C)O1 (centres unmarked)	18.6
COC(=O)C1=C(C)N(CCc2cc(OC)c(OC)c(OC)c2)C(=O)N[C@H]1c1ccc(Br)cc1	-45.4
COc1ccc(N2C(=O)/C(=C/c3cccnc3)NC2=S)cc1	8.95
COc1cc(C(=O)NNC(=O)c2cccn2C)cc(OC)c1OC	-13.3
CC(C)(NS(=O)(=O)OCC(Cl)(Cl)Cl)c1ccccc1	-1.71
Cc1ccccc1OCCOC(=O)c1ccc(S(=O)(=O)N2CCCC2)cc1	3.69
COc1ccc(CN2CCC(=O)NC2=O)cc1	2.92
COc1cc(OC)c2c(C)cc(=O)oc2c1	15.4
CCOc1cc(NC(=S)NCCCOC)c(OCC)cc1NC(=O)c1cccs1	11.4
O=S(=O)(NCc1ccco1)c1ccc(Cl)cc1Cl	6.29
Cc1ccc(C(=O)Nc2ccccc2N2CCCC2)cc1	-3.97
CCOc1[nH]n(-c2ccc(Cl)cc2)c(=O)c1C=Nc1ccc(OC)cc1	14.8
COc1ccc(-n2c(C)cc(C=O)c2C)cc1Cl	8.27
Cc1cc(C)cc(Cn2ncc(Cl)c(Cl)c2=O)c1	-9.97
COc1ccc(CNC(=O)C2CCN(C(=O)c3ccc(-c4ccccc4)cc3)CC2)cc1	-19.5
Cc1ccc(NC(=S)NC(CO)C(O)c2ccc([N+](=O)[O-])cc2)cc1 (centres unmarked)	7.1
CCc1cc(=O)[nH]c(SCc2ccc(C)cc2)n1	-3.28
Cc1ccc(-c2nc(-c3ccncc3)no2)cc1C	9.9
CC1=C(C#N)C(c2ccccc2)C2=C(N1)c1ccccc1C2=O (centres unmarked)	1.22
CN(C(=O)CN1C(=O)S/C(=C\c2ccc(Cl)cc2)C1=O)C1CCS(=O)(=O)C1 (centres unmarked)	-11.9

From article PMC4336329 (PLoS ONE, 2015)
